Experimental data: the supplement of paper PMC8821664
Counter-ions that a name gives are not always drawn. This is one part of the list. Repeats are few or missing, and single values can be far off.

What follows are compounds tested on Beas-2B AQP5-HiBiT reporter cells (assay: AQP5-HiBiT luminescence relative to vehicle (ratio to vehicle); higher = higher AQP5-HiBiT protein abundance). Conditions: 10 µM; 18 h.
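Also: monoclonal Beas-2B line stably carrying CMV promoter-driven AQP5-HiBiT, 5,000 cells per well in 384-well plates, lytic HiBiT plus LgBiT NanoLuc luminescence, FDA-approved drug library screen.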

| SMILES | AQP5-HiBiT luminescence |
| --- | --- |
| COc1ccc(CC(C)NCC(O)c2ccc(O)c(NC=O)c2)cc1 (stereo not drawn) [Formoterol] | 0.802 |
| CCCCCCCCCCC[C@@H](C[C@@H]1OC(=O)[C@H]1CCCCCC)OC(=O)[C@H](CC(C)C)NC=O [Orlistat] | 1.23 |
| O=c1ccc2ccc(OCCCCN3CCN(c4cccc5sccc45)CC3)cc2[nH]1 [Brexpiprazole] | 1.14 |
| CNCCC(Oc1ccc(C(F)(F)F)cc1)c1ccccc1 (stereo not drawn) [Fluoxetine] | 0.748 |
| COc1cccc2c1C(=O)c1c(O)c3c(c(O)c1C2=O)C[C@@](O)(C(=O)CO)C[C@@H]3O[C@H]1C[C@H](N)[C@H](O)[C@H](C)O1 [Doxorubicin (Adriamycin)] | 1.26 |
| C[C@@H]1[C@H](O)[C@@H](C)/C=C/C=C/C=C/C=C/C=C/C=C/C=C/[C@H](O[C@@H]2O[C@H](C)[C@@H](O)[C@H](N)[C@@H]2O)C[C@@H]2O[C@](O)(C[C@@H](O)C[C@@H](O)[C@H](O)CC[C@@H](O)C[C@@H](O)CC(=O)O[C@H]1C)C[C@H](O)[C@H]2C(=O)O [Amphotericin B] | 0.858 |
| O=C(O)COCCN1CCN([C@H](c2ccccc2)c2ccc(Cl)cc2)CC1 [Levocetirizine] | 0.814 |
| Cc1ncc(CO)c(CO)c1O [Pyridoxine] | 1.21 |
| CN1C2CCCC1CC(NC(=O)c1nn(C)c3ccccc13)C2 (stereo not drawn) [Granisetron hydrochloride] | 1.16 |
| Nc1ccc(S(=O)(=O)Nc2ccccn2)cc1 [Sulfapyridine] | 1.14 |
| COc1ccc2cc(CCC(C)=O)ccc2c1 [Nabumetone] | 0.784 |
| NS(=O)(=O)c1cc2c(cc1Cl)N=CNS2(=O)=O [Chlorothiazide] | 0.93 |
| CC1(C)S[C@@H]2[C@H](NC(=O)[C@H](C(=O)O)c3ccsc3)C(=O)N2[C@H]1C(=O)O [Ticarcillin disodium] | 1.25 |
| C[C@H](CCC(=O)NCCS(=O)(=O)O)[C@H]1CC[C@H]2[C@@H]3[C@@H](O)C[C@@H]4C[C@H](O)CC[C@]4(C)[C@H]3CC[C@]12C [Tauroursodeoxycholic Acid] | 0.751 |
| O=S(=O)(O)CCSSCCS(=O)(=O)O [Dimesna] | 0.661 |
| COc1ccc2cc([C@H](C)C(=O)O)ccc2c1 [Naproxen] | 0.7 |
| Cc1cccn2c(=O)c(-c3nnn[nH]3)cnc12 [Pemirolast potassium] | 1.4 |
| CN(C)CCOc1ccc(/C(=C(/CCCl)c2ccccc2)c2ccccc2)cc1 [Toremifene] | 1.24 |
| CCCCc1nc(Cl)c(CO)n1Cc1ccc(-c2ccccc2-c2nnn[nH]2)cc1 [Losartan potassium] | 0.734 |
| CC(C)Cc1ccc(C(C)C(=O)O)cc1 (stereo not drawn) [Ibuprofen] | 1.09 |
| CCOC(=O)C1=C(COCCN)NC(C)=C(C(=O)OC)C1c1ccccc1Cl (stereo not drawn) [Amlodipine] | 2.05 |
| C[C@]12CC[C@@H]3c4ccc(O)cc4CC[C@H]3[C@@H]1CC[C@@H]2OC(=O)CCC1CCCC1 [Depofemin] | 0.844 |
| Nc1cccc2c1C(=O)N(C1CCC(=O)NC1=O)C2=O (stereo not drawn) [Pomalidomide] | 0.789 |
| C[C@H]1C[C@@H]2[C@H]([C@@H](O)C[C@@]3(C)[C@H]2CC[C@]3(O)C(=O)CO)[C@@]2(C)C=CC(=O)C=C12 [Methylprednisolone] | 0.65 |
| Cn1nnc2c(C(N)=O)ncn2c1=O [Temozolomide] | 1.35 |
| CO[C@H]1/C=C/O[C@@]2(C)Oc3c(C)c(O)c4c(O)c(c(/C=N/N5CCN(C)CC5)c(O)c4c3C2=O)NC(=O)/C(C)=C\C=C\[C@H](C)[C@H](O)[C@@H](C)[C@@H](O)[C@@H](C)[C@H](OC(C)=O)[C@@H]1C [Rifampicin] | 0.876 |
| COc1ccc(CN(CCN(C)C)c2ccccn2)cc1 [Pyrilamine maleate] | 1.77 |
| CC(C)(C)c1cc(C(C)(C)C)c(NC(=O)c2c[nH]c3ccccc3c2=O)cc1O [Ivacaftor (VX-770)] | 1.07 |
